Test results reported in the supplement of paper PMC6531468.
The list shows a part of the results. These are enrichments in a pooled selection; single values are uncertain. Each score is taken over the longer molecules that contain the sequence shown.

These sequences were tested on IMP3 KH3-4 (assay: 6-mer SELEX enrichment z-score vs GST control; IMP3 is the RNA-binding protein IGF2BP3; higher = more enriched by binding). Settings: construct: KH3-4 (377-579); SELEX round: R4.
Sequence of IMP3 KH3-4 (chain, as listed by the source): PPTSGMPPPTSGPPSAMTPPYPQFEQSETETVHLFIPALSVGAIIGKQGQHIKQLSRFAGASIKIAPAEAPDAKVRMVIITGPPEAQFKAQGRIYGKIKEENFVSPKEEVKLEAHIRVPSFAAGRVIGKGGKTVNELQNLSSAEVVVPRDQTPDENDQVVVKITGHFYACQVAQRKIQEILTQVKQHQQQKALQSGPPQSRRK
Method: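 SELEX-seq with GST-tagged IMP3 KH3-4 (Pro377-Lys579) and an N40 RNA pool, round 4. 6-mer z-score of sequence-tag enrichment normalised to the corresponding GST SELEX round; RNA k-mers written as DNA (T for U).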
For GAAGCT, the “6-mer SELEX enrichment z-score” value was -0.34.
For ACCGAA, the “6-mer SELEX enrichment z-score” value was -2.04.
CCAGTC was tested, and the “6-mer SELEX enrichment z-score” value was -0.233.
CGGTTA was tested, and the “6-mer SELEX enrichment z-score” value was 0.167.
With ACTTCC the “6-mer SELEX enrichment z-score” value was -0.31.
For TTTTTA, the “6-mer SELEX enrichment z-score” value was 1.74.
With AAGCAC the “6-mer SELEX enrichment z-score” value was -0.344.
For CTACTC, the “6-mer SELEX enrichment z-score” value was -0.669.
In the case of TCCTTA, the “6-mer SELEX enrichment z-score” value is reported as 0.68.
For GAGACT, the “6-mer SELEX enrichment z-score” value was -0.334.
CACGCC was tested, and the “6-mer SELEX enrichment z-score” value was -0.877.
With ATATGA the “6-mer SELEX enrichment z-score” value was 2.86.
For AGAACT, the “6-mer SELEX enrichment z-score” value was 0.44.
With CAACGT the “6-mer SELEX enrichment z-score” value was -1.28.
With TTAGAG the “6-mer SELEX enrichment z-score” value was 0.147.
With CTGTCT the “6-mer SELEX enrichment z-score” value was -0.037.
CACCCC was tested, and the “6-mer SELEX enrichment z-score” value was -1.66.
For TTTAGT, the “6-mer SELEX enrichment z-score” value was 0.557.
For TAGCCC, the “6-mer SELEX enrichment z-score” value was -0.886.
TTCCGG was tested, and the “6-mer SELEX enrichment z-score” value was 0.221.
AAAGTC was tested, and the “6-mer SELEX enrichment z-score” value was -0.299.
With TGGCCT the “6-mer SELEX enrichment z-score” value was -0.07.
In the case of TTGAAA, the “6-mer SELEX enrichment z-score” value is reported as 0.549.
In the case of AGATGG, the “6-mer SELEX enrichment z-score” value is reported as 0.892.
AGGCTA was tested, and the “6-mer SELEX enrichment z-score” value was 0.642.
For CAACGA, the “6-mer SELEX enrichment z-score” value was -1.77.
With GTTGCA the “6-mer SELEX enrichment z-score” value was 0.086.
CGAGAA was tested, and the “6-mer SELEX enrichment z-score” value was -0.981.
CAATAG was tested, and the “6-mer SELEX enrichment z-score” value was 0.726.
For CCGTTA, the “6-mer SELEX enrichment z-score” value was 0.009.
In the case of CAATGA, the “6-mer SELEX enrichment z-score” value is reported as 0.838.
AAAGCC was tested, and the “6-mer SELEX enrichment z-score” value was -1.73.
GCCACC was tested, and the “6-mer SELEX enrichment z-score” value was -0.643.
GCACCA was tested, and the “6-mer SELEX enrichment z-score” value was -0.275.
For AAGAAG, the “6-mer SELEX enrichment z-score” value was 0.956.
TCTTCC was tested, and the “6-mer SELEX enrichment z-score” value was 0.002.
With TATGCA the “6-mer SELEX enrichment z-score” value was 0.983.
For ATAAAT, the “6-mer SELEX enrichment z-score” value was 3.01.
In the case of TACTAT, the “6-mer SELEX enrichment z-score” value is reported as 1.38.
CTGACC was tested, and the “6-mer SELEX enrichment z-score” value was -1.56.
